# Test results reported in the supplement of paper PMC8728848.
# This is one part of the list.
# B1: SSP1 (Sclerotinia sclerotiorum), XP_001584968 (protein)
# chain: MGSSHHHHHHSSGLVPRGSHMSLLTTELACTSAPDQVLHLFFQDGQNILEARSPDGGNVWTTQDTIIAKDGDYNGSSMTCYYVDKDANFDNQPSIHLLYMNKDKQLTEKVKRMKGDNPIWEDAKVPDEVRKGPEQYSKLTSGSFNQGTGWNPNGSQWAYFSASKDGKMGIVEIRRTPKDPWHTETILEEKWGDELPGTALACVIGNGKIRVFLQHHDYSIILYENQNNTWHDRGTFIPKDKVQATTPLACTMTKDGSVHLFYVSKSNKIIHCTDGKKEEELINFFPGSKLGATSVENKITLFFRNLNPVNEVGTLENENGSWKHGTTVIPA
# What was measured:
# Assay in all cases: glycan array binding signal (z-score within array); higher = stronger binding
# Conditions in all cases: glycan notation: IUPAC condensed, linker removed
# [1] = target: Gal(b1-4)GlcNAc(b1-2)Man(a1-3)[Gal(b1-4)GlcNAc(b1-2)Man(a1-6)]Man(b1-4)GlcNAc(b1-4)GlcNAc
# How it was run: (§1)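 The binding signal is a Z-score computed within each array and averaged over linkers. Arrays of the same protein sequence at different concentrations or buffers were also averaged together. Data originate from 3228 arrays in the Consortium for Functional Glycomics database, kept only where the protein sequence was available.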
# [2] = target: Gal(b1-4)GlcNAc(b1-2)Man(a1-3)[Gal(b1-4)GlcNAc(b1-2)Man(a1-6)]Man(b1-4)GlcNAc(b1-4)[Fuc(a1-6)]GlcNAc
# How it was run: as §1
# [3] = target: Gal(b1-4)GlcNAc(b1-2)Man(a1-3)[Gal(b1-4)GlcNAc(b1-2)Man(a1-6)][Gal(b1-4)GlcNAc(b1-4)]Man(b1-4)GlcNAc(b1-4)[Fuc(a1-6)]GlcNAc
# How it was run: as §1
# [4] = target: Gal(b1-4)GlcNAc(b1-2)Man(a1-3)[Gal(b1-4)GlcNAc(b1-2)Man(a1-6)][GlcNAc(b1-4)]Man(b1-4)GlcNAc(b1-4)[Fuc(a1-6)]GlcNAc
# How it was run: as §1
# [5] = target: Gal(b1-4)GlcNAc(b1-2)Man(a1-3)[GlcNAc(b1-2)Man(a1-6)]Man(b1-4)GlcNAc(b1-4)GlcNAc
# How it was run: as §1
# [6] = target: Gal(b1-4)GlcNAc(b1-2)Man(a1-3)[GlcNAc(b1-4)][Gal(b1-4)GlcNAc(b1-2)Man(a1-6)]Man(b1-4)GlcNAc(b1-4)GlcNAc
# How it was run: as §1
# [7] = target: Gal(b1-4)GlcNAc(b1-2)Man(a1-3)[Man(a1-6)]Man(b1-4)GlcNAc(b1-4)GlcNAc
# How it was run: as §1
# [8] = target: Gal(b1-4)GlcNAc(b1-2)Man(a1-6)Man(b1-4)GlcNAc(b1-4)GlcNAc
# How it was run: as §1
# [9] = target: Gal(b1-4)GlcNAc(b1-2)Man(a1-6)[GlcNAc(b1-2)Man(a1-3)]Man(b1-4)GlcNAc(b1-4)GlcNAc
# How it was run: as §1
# [10] = target: Gal(b1-4)GlcNAc(b1-2)Man(a1-6)[Man(a1-3)]Man(b1-4)GlcNAc(b1-4)GlcNAc
# How it was run: as §1
# [11] = target: Gal(b1-4)GlcNAc(b1-2)[Gal(b1-4)GlcNAc(b1-4)]Man(a1-3)[Gal(b1-4)GlcNAc(b1-2)Man(a1-6)]Man(b1-4)GlcNAc(b1-4)GlcNAc
# How it was run: as §1
# [12] = target: Gal(b1-4)GlcNAc(b1-2)[Gal(b1-4)GlcNAc(b1-4)]Man(a1-3)[Gal(b1-4)GlcNAc(b1-2)[Gal(b1-4)GlcNAc(b1-6)]Man(a1-6)]Man(b1-4)GlcNAc(b1-4)GlcNAc
# How it was run: as §1
# [13] = target: Gal(b1-4)GlcNAc(b1-2)[Gal(b1-4)GlcNAc(b1-4)]Man(a1-3)[GlcNAc(b1-4)][Gal(b1-4)GlcNAc(b1-2)Man(a1-6)]Man(b1-4)GlcNAc(b1-4)GlcNAc
# How it was run: as §1
# [14] = target: Gal(b1-4)GlcNAc(b1-2)[Gal(b1-4)GlcNAc(b1-4)]Man(a1-3)[GlcNAc(b1-4)][Gal(b1-4)GlcNAc(b1-2)[Gal(b1-4)GlcNAc(b1-6)]Man(a1-6)]Man(b1-4)GlcNAc(b1-4)GlcNAc
# How it was run: as §1
# [15] = target: Gal(b1-4)GlcNAc(b1-2)[Gal(b1-4)GlcNAc(b1-6)]Man(a1-6)[Gal(b1-4)GlcNAc(b1-2)Man(a1-3)]Man(b1-4)GlcNAc(b1-4)GlcNAc
# How it was run: as §1
# [16] = target: Gal(b1-4)GlcNAc(b1-2)[Gal(b1-4)GlcNAc(b1-6)]Man(a1-6)[Gal(b1-4)GlcNAc(b1-2)Man(a1-3)]Man(b1-4)GlcNAc(b1-4)[Fuc(a1-6)]GlcNAc
# How it was run: as §1
# [17] = target: Gal(b1-4)GlcNAc(b1-2)[Gal(b1-4)GlcNAc(b1-6)]Man(a1-6)[GlcNAc(b1-4)][Gal(b1-4)GlcNAc(b1-2)Man(a1-3)]Man(b1-4)GlcNAc(b1-4)GlcNAc
# How it was run: as §1
# [18] = target: Gal(b1-4)GlcNAc(b1-2)[Gal(b1-4)GlcNAc(b1-6)]Man(a1-6)[GlcNAc(b1-4)][Gal(b1-4)GlcNAc(b1-2)[Gal(b1-4)GlcNAc(b1-4)]Man(a1-3)]Man(b1-4)GlcNAc(b1-4)[Fuc(a1-6)]GlcNAc
# How it was run: as §1
# [19] = target: Gal(b1-4)GlcNAc(b1-3)Gal(b1-3)GalNAc
# How it was run: as §1
binder,measurement,setting,value
B1,glycan array binding signal (z-score),[1],-0.294
same,glycan array binding signal (z-score),[2],0.031
same,glycan array binding signal (z-score),[3],0.224
same,glycan array binding signal (z-score),[4],-0.567
same,glycan array binding signal (z-score),[5],-0.595
same,glycan array binding signal (z-score),[6],-0.649
same,glycan array binding signal (z-score),[7],-0.64
same,glycan array binding signal (z-score),[8],-0.14
same,glycan array binding signal (z-score),[9],0.357
same,glycan array binding signal (z-score),[10],-0.48
same,glycan array binding signal (z-score),[11],-0.248
same,glycan array binding signal (z-score),[12],-0.276
same,glycan array binding signal (z-score),[13],-0.023
same,glycan array binding signal (z-score),[14],0.427
same,glycan array binding signal (z-score),[15],0.079
same,glycan array binding signal (z-score),[16],-0.531
same,glycan array binding signal (z-score),[17],-0.67
same,glycan array binding signal (z-score),[18],0.197
same,glycan array binding signal (z-score),[19],-0.472
